# This sample is rich in variants without activity.
# B1: TPR 5TU (parent)
# chain: GGAUCUUCUCGAUCUAACAAAAAAGACAAAUCUGCCACAAAGCUUGAGAGCAUCUUCGGAUGCAGAGGCGGCAGCCUUCGGUGGCGCGAUAGCGCCAACGUUCUCAACUAUGACACGCAAAACGCGUGCUCCGUUGAAUGGAGUUUAUCAUG
# Variants of: B1
# Assay: polymerase ribozyme fitness, log enrichment relative to wild type (log ratio); higher = more active; in vitro selection for triplet polymerase activity
# How it was run: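 Fitness is a logarithmic measure of how a genotype enriched relative to the wild type, with replicate averages weighted by inverse variance. The logarithm uses base 2, and enrichment came from Illumina sequencing of input and output libraries. Those libraries were PCR-built, transcribed mutants of each subunit of a heterodimeric triplet polymerase ribozyme, passed through one triplicate in vitro selection round that included frozen incubation at −7 °C, gel excision of extended constructs and streptavidin-bead capture. Genotypes were kept only if they had ≥10 input reads and ≥1 read per output.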
row,Variant,polymerase ribozyme fitness (log ratio)
1,GGAUCUUCUCGAUCUAACUAAAAAGACAAAUCUGCCACAAAGCUUGAGAGCAUCUUCGGAUGCAGAGGCGGCAGCCUUCGGUGGUUCGAUAGUGCCAACGUUCUCAACUAUGACACGCAAAACGCGUGCACCGUUGAUUGGAGUUUAUCAUG,≤ -4.2
2,GGAUCUUCUCGAUCUAACUAAAAAGAAAAAUCUGCCACAAAGCUUGAGAGCAUCUUCGGAUGCAGAGGCGGCAGCCUUCGGUGGCGCGAUUGCUCCAACGUUCUCAACUAUGACACGCAAAACGCUUGCUCCGUUGAAUGAACUUUAUCAUG,≤ -4.2
3,GGAUCUUCUCGAUCUAACUAAAAAGACAAAUAUGCUACAAAGCUUGAGAGCAUCUUCGGAUGCAGAGGCGGCAGCCUUCGGUGGCGCGACAGCGGCAACGUUCUCAACUAUGACACGCAAAACGCGUGCUCCGAUGAAUGGAGUUUAUCAUG,≤ -4.2
4,GGAUCUUCUCGAUCUAACUAAAAAGACAAAUCUGCCACAAAGCUUGCGAGCAUCUUCGGAUGCAGAGGCGGCAGCCUUCGGUGGCGCGAUAGUGCCAACGUUCUCAACUAUGACACGCAAAACGCGUGCUCCGUUGAAUGGAGUUUAUCAUG,-1.1
5,GGAUCUUCUCGAUCUAACUAAAAAGACAAAUCUGCCACAAAGCUUGAGAGCAUCUUCGGAUGCAGAGGCGGCAGCCUUCGGUGGCGCGAUAGGGCCAACGUUCUCAACUAUGACACGCAAAACGCGUGCUCCGUUGAAUGGAGUUUAUCAUG,≤ -4.2
6,GGAUCUUCUCGAUCUAACUAAAAAGACAAAUCUGCCACAAAGCUUGAGAGCAUCUUGGGAUGCAGAGGCGGCAGCCUUCGGUGGCGCGAUAGCGCCAACGUUCUCAACUAUGACACGCAAAACGCGUGCUCCGUUGAAUGGAGUUUAUCAUG,-1.75
7,GGAUCUUCUCGAUCUAACUAAAAAGACAAAUCUUCCACAAAGCUUGAGAGUACCUUCGGAUGCAGAGGCGGCAGCCUUCGAUGGCUCGAUAACGCUAGCGUUCUCAACUAUGACACGCAAAACGCGUGCUCCGUUGAAUGGAGUUUAUCAUG,≤ -4.2
8,GGAUCUUCUCGAUCUAACUAAAAAGACAAAUCUGCCACAAAGCUUUAAAGCAUCUUCGGAUGCAGAGGCGGCAGCCUUCGGUGGCGCGAUAGUGCCAUCGUUCUCAACUAUGACACGCAAAACGCGUGCUCCGUUGAAUGGAGUUUAUCAUG,≤ -4.2
9,GGAUCUUCUCGAUCUAACUAAAAAGACAAAUCUGCCACAAAGCUUGAGAGCAUCUUCGGAUGCAGAGGAGGCAGCCAUCGGUGGCGCGAUAGCGCCAACGUUCUCAACUAUGACAGGCAAAACGUGUGCUCCGUUGAAUGAAGUUUAUCAUG,≤ -4.2
10,GGAUCUUCUCGAUCUAACUAAAAAAAGAAAUCUGCCACAAAGCUUGAGAGCAUCUUCGGAUGCAGAGGCGGCAGCCUUCGGUGGCGCGAUAGUGCCAACGUUCUCAAUUAUGAAACGCAAAACGCGUGCUCCGUUGAAUGGAGUUUAUCGUG,≤ -4.2
11,GGAUCUUCUCGAUCUAACUAAAAAGACAAAUCUGCCACAAAGAUUGCGAGCAUCUUCGGAUGCAGAGGCGGCAGCCUUCGGUAGCGCGAUAGCGCCAACGUUCUCAACUAUGACACGCAAAACGCUUGCUCCGUUGAAUGGAGUUAUUCAUG,≤ -4.2
12,GGAUCUUCUCGAUCUAACUAAAAAGACAAAUCUGCCACAAAGCUUGAAAGCAUCUUCGGAUGCAGAGGCGGCAGCCUUCGGUGGCGCGAUAGCGCCAACGUUCUCAACUAUGACAGGCAAAACGCGGGCUCCGUUGAAUGGAGUUUAUCAUG,≤ -4.2
13,GGAUCUUCUCGAUCUAACUAAAAAGACAAAUCUGCCACAAAGCUUGAGAGUAUCUUAGGAUGCUGAGGCGGCAGCCUUCGGUGGCGCGAUAGCACCAACGUUCUCAACUAUGACACGCAAAACGCGUGCUCCGUUGAAUGGAGUUUCUCAUG,≤ -4.2
14,GGAUCUUCUCGAUCUAACUAAAAAGACAAAUCUGCCACAAAGCUUGAGAGCAUCUUCGGUUGCAGAGGCGGCAGCCUUCGGUGGUGCGAUAGCGCCAACGUUCUCAAUUAUGACACGCAUAACGCGUGCUCCGUUGAAAGGACUUUAUCAUG,≤ -4.2
15,GGAUCUUCUCGAUCUAACUAAAAAGACAAAUCUGCCACAAAGGUUGAGAGCAUGUUCGGAUGCAGAGGCGGCAGCCUUCGGUGGCGCGAUGGCGCCAACGUUCUCAACUAUGACACGCAAAACGCGUGCUCCGUUGAAUGGAGUUUAUCAUG,≤ -4.2
16,GGAUCUUCUCGAUCUAACUAAAAAGACAAAUCUGCCAUAAAGCUUGAGAGCAUGUUCGGAUACAGAGGCGGCAGCCUUCGGUGACGCGAUAGCGCCAACGUUCUCAACUAUGACACGCAAAACGCGUGCUCCGUUGAAUGGAGUUUAUCAUG,≤ -4.2
17,GGAUCUUCUCGAUCUAACUAAAAAGACAAAUAUGCCACAAAGCUUGAGAGCAUCUUCGGAUGCAGAGGCGGCAGCCUUCGGUGACGCGAUAGCGCCAACGUUCUCAACUAUGACACGCAAAACGCGUUCUUCGUUGGAUGGAGUUUAUCAUG,-3.73
18,GGAUCUUCUCGAUCUAACUAAAAAGACAAAUCUGCCACAAAGCUUGAGAGAAUCUUCGGAUGCAGAGGCGGCAGCCUUCGGUGGCGCGGUAGCGCCAACAUUCUCAACUAUGACGCGCAAAACGCGUGCUCCGUUGAAUGGAGUUUAUCAUG,≤ -4.2
19,GGAUCUUCUCGAUCUAACUAAAAAGACAAAUCUGCCACAAAGCUUGAGAGCAUCUUCGGAUGCAGAGGCGGCAGCCUUCGGUGGCGCGAUUGAGCCAACGUUCUCAACUAUGACACGCAAAUCGCGUGCUCCGUUGAAUGGACUUUAUCAUG,≤ -4.2

row,Variant,polymerase ribozyme fitness (log ratio)
1,GGAUCUUCUCGAUCUAACUAAAAAGACAAAUCUGCCACAAAGCUUGAGCGCAUCUUCGGAUGCAGAGGCGGCAGCCUUCGGUGGCGCGAUGGCGCCAACGUUCUCAACUAUGACACGCAAAACGCGUGCUCCGUUGAAUGGACUUUAUCAUG,≤ -4.2
2,GGAUCUUCUCGAUCUAACUAAAAAGACAAAUUUGCCACAAAGCUGGAGAGCAUCAACGGAUGCAGAGGCGACAGCCUUCGGUGGCGCUAUAGCGCCAACGUUCUCAACUAUGACAUGCAAAUCGCGUCCUCCGUUGAAUGGAGUUUAUCAUG,≤ -4.2
3,GGAUCUUCUCGAUCUAACUAAAAAGACAAAUCUACCACAAAGCUUGAGAGCAUCUUCGGCUGCAGAGGCGGCAGCCUUCGGUAGCGCGAUAGCGCGAACGCUCUCAACUAUGACACGCAAAACGCGUGCUCCGUUGAAUGGAGUUUAUCAUG,≤ -4.2
4,GGAUCUUCUCGAUCUAACUAAAAAGACAAAUCUGCCACAAAGCUUGAGAGCAUUUUAGGAUGCAGAGGCGGCAGCCUUCGGUGGCGCGAUAGAACCAACGUUCUCAACUAUGGCACGCAAAGCACGUGCUCCGUUGAAUGGAGUUUAUCAUG,≤ -4.2
5,GGAUCUUCUCGAUCUAACUAAAAAGACAAAUCUGCCACAAAGCUUGAGAACAUCUUCGGAUGCAGAGGCGACAGCCUUCGGUGGCGCGGUAGCGCCAACGUUCUCAACUAUGACACGCAAAACGCGUGCUCCGUUGGAUGGAGUUUAUCAUG,≤ -4.2
6,GGAUCUUCUCGAUCUAACUAAAAAGACAAAUCUGCCACAAAGCUUGAGAGCAUCUUCGGAUGCAGAGGCGGCAGCCUUCGGUGGCGCGAUAGCGCCAACGUUCUGAACUAUGACACGCAAAACGCGUGCUCCGUUGACUGGAGUGUAUCAUG,≤ -4.2
7,GGAUCUUCUCGAUCUAACUAAAAAGACAAAUCUGCCACAAAGCUUGACAGCAUUAUCGGAUGCAGAGGCGGCAGCCUUCGGUGGCGCGAUAGCGCCAACGUUCUCAACUAUGAAACGCAAAACGCGUGACCCGUUGAAUGGAGUUUAUCAUG,≤ -4.2
8,GGAUCUUCUCGAUCUAACUAAAAAGACAAAUCUGCCACAAAGCUUGAGAGCAUCUUCGGAUGCAGAGGCGGCAGCCUUCGGUGGGGCGAUAGCGCCAACGUUCUCAACUAUGACACGCAAGACGCGUGCUCCGUUGAAUGGAGUUUAUCAUG,-1.62
9,GGAUCUUCUCGAUCUAACUAAAAAGACAAAUCUGCCAUAAAGCUUGAGCGCAUCUUCCGAUGCAGAGGCGGCAGCCUUUGGUGGCGCAAUAGCGCCCACGUUCUCAACUAUGACACGCAAAACGCGUGCUCCGUUGAAUGGAGUUUAUCAUG,≤ -4.2
10,GGAUCUUCUCGAUCUAACUAAAAAUACAAAUCUGCCACAAAGCUUGAGAGCAUCUUCGGGUGCUUAGGCGGCAGCCUUCGAUGGUGCGAUAGCGCCAACGUUCUCAACUAUGACACGCAAAACGCGUGCUCCGUUGAAUGGAGUUUAGCAUG,≤ -4.2
11,GGAUCUUCUCGAUCUAACUAAAAAGACAAAUCUGCCACAAAGCUUGAGAGCAUCUUCGGAUGCAGAGGCGGCGGCCUUCGGUGGCGAGAUAGAGCCAAGGUUCUCAACUAUGACACGCAAAACGCGUGCUCCGUUUAAUGGAGUUUAUCAUG,≤ -4.2
12,GGAUCUUCUCGAUCUAACUAAAAAGACAAAUGUGCCACCAAGCUUGAGAGCAUCUUCGGAUGCAGAGGCGGCAGCCUUCGGUGGCGCGAUAGCGCCAACGUUGUCAACUAUGACACGCAAAACGCGUGCUCCGUUGAAUGGAGUUUAUCAUG,≤ -4.2
13,GGAUCUUCUCGAUCUAACUAAAAAUACAAAUCUGACACAAAGCUUGAGAGCAUCUUCGGAUGCAUAGGCGGCAGCCUUCGGUGGCGCGAUUGCGCCAACGUUCUCAACUAUGACACGCAGAACGCGUGCUCCGUUGAAUAGUGUUUAUCAUG,-4.19
14,GGAUCUUCUCGAUCUAACUAAAAAGACAAAUCUGCCACAAGGCAUGAGAGCAUCUUCGGAUGCAGAGGCGGCAGCCUUCGGUAGCACGAUAGCGCCAACGUUCUCAAAUAUGACACGCAAAACGCGUGCUCCGUUGAAUGGAGUUCAUCAUG,≤ -4.2
15,GGAUCUUCUCGAUCUAACUAAAAAGACAAAUUUGCCAUAAAGCUUGAGAGCAUCUUCGGAUGCAAAGGCGGCAGCCUUCGGUGGCGCGAAAGCGACAACGUUCUCAACUAUGACACGCAAAACGCGUGCUCGGUUGAAUGGAGUUUAUCAUG,≤ -4.2
16,GGAUCUUCUCGAUCUAACUAAAAAGACAAAUCUGCCACAAAGCUUGAGAGCAUCUUCGGAUGCAGAGGCGGCAGCCUUCGGUGGCGCGAUAGCGCCAACGUUCUCAACUAUGACACGCAAAACGCGUGCUACGUUGAAUGGAGUUUAUCAUG,-1.75
17,GGAUCUUCUCGAUCUAACUAAAAAGACAAAUCUGCCACAAAGCUUGAGAGCAUCUUCGGAUGCAGAGGCGGCAGCCUUCGGUGGCGGGAUAGCGCCAACGUUCUCAACUAUGACACGCAAAACGCGUGCUCCGUUGAAUGGAGUUUAUCAUG,-4.17
18,GGAUCUUCUCGAUCUAACUAAAAAGACAAAUCUGCCACAAAGCUUGAGCGCGUCUUCGGAUGCAGAGGCGGCAGCCUUCGGUGGCGCGAUAGCGCCAACGUUCUCGACUAUGACACGCAAAACGCGUGCUCCGUUGAAUGGAGUUUAUCAUG,≤ -4.2
19,GGAUCUUCUCGAUCUAACUAAAAAGACAAAUAUGCCACAAAGCUUGAGAGCAUCUUCGGAUGCAGAGGCAGCAGCCUUCGGUGACGCGAUAGCGCCAACGUUCUCAACUAUGACACGCAAAACGCGUGCUCCGUUGAAUGGAGUUUAUCAUG,≤ -4.2
